Measured values reported in article PMC4336329 (PLoS ONE, 2015).
In all, about 310,000 compounds went through this assay and about 2,200 (0.71%) showed an effect of 50% or more. Effects have a minus sign here. The list shows a part of the results.

target: human ether-à-go-go-related gene (hERG) potassium channel (human, UniProt Q12809); test: primary screen, population patch clamp on CHO cells stably expressing hERG
Sequence (Q12809 whole entry, looked up): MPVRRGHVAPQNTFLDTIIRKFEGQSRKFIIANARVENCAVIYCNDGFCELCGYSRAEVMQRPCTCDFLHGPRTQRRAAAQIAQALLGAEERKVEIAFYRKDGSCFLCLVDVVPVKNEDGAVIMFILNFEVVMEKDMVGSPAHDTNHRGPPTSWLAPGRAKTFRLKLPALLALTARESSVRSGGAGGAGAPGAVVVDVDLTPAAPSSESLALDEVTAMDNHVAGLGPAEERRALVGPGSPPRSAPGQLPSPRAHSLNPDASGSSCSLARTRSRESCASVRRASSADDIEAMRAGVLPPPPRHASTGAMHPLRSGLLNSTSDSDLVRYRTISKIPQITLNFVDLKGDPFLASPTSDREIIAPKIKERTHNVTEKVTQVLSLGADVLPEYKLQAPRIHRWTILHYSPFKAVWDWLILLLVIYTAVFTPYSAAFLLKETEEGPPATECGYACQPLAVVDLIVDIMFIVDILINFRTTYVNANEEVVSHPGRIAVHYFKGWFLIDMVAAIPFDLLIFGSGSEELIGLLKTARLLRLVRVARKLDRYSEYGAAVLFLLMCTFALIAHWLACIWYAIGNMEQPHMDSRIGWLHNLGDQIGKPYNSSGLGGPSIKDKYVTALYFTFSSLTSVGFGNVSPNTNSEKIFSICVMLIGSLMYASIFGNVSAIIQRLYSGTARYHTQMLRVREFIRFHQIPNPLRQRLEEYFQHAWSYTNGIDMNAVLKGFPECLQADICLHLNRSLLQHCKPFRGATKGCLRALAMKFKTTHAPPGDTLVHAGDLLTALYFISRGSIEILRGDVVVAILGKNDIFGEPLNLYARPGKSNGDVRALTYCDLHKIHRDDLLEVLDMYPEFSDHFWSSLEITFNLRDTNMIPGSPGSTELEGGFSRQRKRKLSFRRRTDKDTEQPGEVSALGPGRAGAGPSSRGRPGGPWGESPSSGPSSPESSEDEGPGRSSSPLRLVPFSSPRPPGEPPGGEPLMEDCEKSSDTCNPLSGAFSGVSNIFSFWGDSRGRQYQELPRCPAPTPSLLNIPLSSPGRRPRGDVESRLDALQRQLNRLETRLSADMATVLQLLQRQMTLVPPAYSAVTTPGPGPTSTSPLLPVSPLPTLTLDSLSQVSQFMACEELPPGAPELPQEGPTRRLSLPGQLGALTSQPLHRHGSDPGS

SMILES | hERG current change (%, negative = inhibition) at 1uM [%]
O=C(Nc1ccccc1)c1ccc(S(=O)(=O)N2CCOCC2)cc1 | 17.9
COc1ccc(NC(=O)CN(C)C(=O)c2ccc(C)s2)cc1 | 9.17
O=C(CCNC(=O)c1ccc(Br)cc1)NCc1ccco1 | 8.04
Cc1ccc(S(=O)(=O)NCCNC(=O)c2ccccc2)cc1 | 15.8
CC1(C)c2[nH]c3ccccc3c2C[C@H]2C(=O)N(Cc3ccc(F)cc3)C(=O)N21 | 13.2
COC(=O)c1ccc(NC(=S)NC(=O)C2CCC2)cc1 | 22
COc1ccccc1C(=O)COC(=O)Cc1n[nH]c(=O)c2ccccc12 | 5.93
CCN(CC)Cc1cc(NC2=NS(=O)(=O)c3ccccc32)ccc1OC(=O)C(C)C.Cl | 5.53
O=C(Nc1c(F)c(F)c(F)c(F)c1F)C1CCCCC1 | 5.93
CC(C)c1onc(C(=O)NCc2cccs2)c1[N+](=O)[O-] | 8.86
CC(=O)OC1N=C(c2ccccc2)c2ccccc2NC1=O (stereo not drawn) | 13.3
CC(Sc1ccccc1)C(=O)NN=C1CCCCCCC1 (stereo not drawn) | 7.58
Cc1cccc(-n2cnc3c(c2=O)c2nc4ccccc4nc2n3Cc2ccco2)c1 | -3.97
Cc1ccc(C(=O)CCC(=O)NC2CCCC(C)C2C)cc1 (stereo not drawn) | 10.4
Cc1ccc(C(=O)NCC#N)cc1 | 11.3
CCn1ncc2c(OCc3ccc(C#N)cc3)cc(C)nc21 | -1.55
O=C(Nc1nccs1)C1CC(=O)N(c2ccccc2)C1 (stereo not drawn) | 15.7
CCC(C)[C@@H](N)C(=O)N/N=C/c1ccc2ncccc2c1.Cl (stereo partly drawn) | 13.4
CN(C)C(C)(C)C#CCCCCC#CC(C)(C)N(C)C | 19.6
Cc1ccc2c(Cl)cc(Cl)c(OCC(=O)O)c2n1 | 11.4
O=C(Nc1ccc(S(=O)(=O)N2CCOCC2)cc1)c1cccs1 | 11.5
CC(C)(C)NC(=O)C(=O)NNC(=O)c1ccc(C(C)(C)C)cc1 | 10.1
O=C(CN1C(=O)NC2(CCCCCCC2)C1=O)Nc1ccc(Cl)cc1 | 3.41

SMILES | hERG current change (%, negative = inhibition) at 1uM [%]
CCOc1ccc(C(=O)NC2CCN(C(=O)NCc3ccccc3)CC2)cc1 | 7.81
Cc1c(NC(=O)CSc2nc3ccc(Cl)cc3[nH]2)c(=O)n(-c2ccccc2)n1C | 13.7
Cc1cc(C)c(C(=O)NCC(=O)c2ccccc2)c(C)c1 | 6.18
Cc1ccc(C)c(NC(=O)COC(=O)COc2cccc3c2OC(C)(C)C3)c1 | 15.5
COc1cccc(C2C(C(N)=O)=C(C)Nc3nc(CCCO)nn32)c1OC (stereo not drawn) | 7.87
CCc1ccc(NC(=O)C(CC)Sc2nc3ccsc3c(=O)n2CCC(=O)O)cc1 (stereo not drawn) | 17.3
COc1ccc(NC(=O)CSCC(=O)Nc2ccccc2N2CCCCC2)cc1 | 21.8
Cc1ccc(C(=O)CCC(=O)NCc2ccc(Cl)cc2)cc1 | 12.2
O=C(c1cn(CC2CCCCC2)nn1)N1CCN(c2ccc(F)cc2)CC1 | 6.61
COc1ccc2c(=O)c(-c3ccc4c(c3)OCO4)coc2c1 | 10.1
Cc1nc2sc(C(c3ccc(C(C)C)cc3)N3CCN(CCO)CC3)c(O)n2n1 (stereo not drawn) | 14.1
CCOC(=O)CSc1nc2c(cnn2-c2ccc(Cl)cc2)c(=O)[nH]1 | 6.59
c1ccc(OCCSc2nnnn2C2CCCCC2)cc1 | 9.14
Fc1ccc(-c2[nH]ncc2CN2CCN(c3ccc(F)cc3)CC2)cc1 | -0.0709
CC(C)n1c(/C=C/[C@@H](O)C[C@@H](O)CC(=O)[O-])c(-c2ccc(F)cc2)c2ccccc21.[Na+] | 20.4
CN(C)c1ccc(C(C(=O)NC(C)(C)C)N(C(=O)c2csnn2)C2CC2)cc1 (stereo not drawn) | 8.36
Cc1cccc(NS(=O)(=O)c2cc3c4c(c2)CC(=O)N4CCC3)c1C | 17.3
CC1=NN(/C(=N\c2nnc(C)s2)Nc2ccccc2)[C@H](c2cccc3ccccc23)S1 | 1.38
CCC(CC)N1CCN(C(=O)c2cc(OC)c(OC)c(OC)c2)CC1 | 13.7
CN(Cc1ccon1)C(=O)c1ccc2nc(Cc3cccc(Cl)c3)oc2c1 | 13.4
COc1ccc(C2c3ccc(O)cc3Oc3ncn(CCN4CCOCC4)c(=N)c32)cc1OC (stereo not drawn) | 4.84
N/C(=N\O)c1ccc(Cl)cc1Cl | 5.58
